Measured values reported in paper PMC12136788.
The list shows a part of the results.

B1: chr2:205796522:205796663:+|3pUTR|ENSG00000118257|msi1|FALSE|unique (ssRNA)
RNA: GGGAGUUCUACAGUCCGACGAUCGUUUUUAUUAAGUGCCUUGAAAAAAUGAAGAAAAAUGUAUUUUCCCUUUAUGUAAAAAUUAGUGAAUAUCUUAUGAAUUAAGGCAUUCCUCUUUCCCUAACCCCGAUGGCUCCAUUCCCACAACAGAGGAUUGAGCAUCA
B2: chr1:2308404:2308505:+|3pUTR|ENSG00000157933|unk|total|mutant (ssRNA)
RNA: GGGAGUUCUACAGUCCGACGAUCUUCUUUGCUUUUGUUUUCUUUGCGGUUGUUCUGUGUGCAUGGAUUCCACACCUCUGCCGCCGGCCGAUCCGUCAGCGGGCAUUAUUACCGUGUCUUGUAAAGGGUCGGUUUUGUUAUGCACAACAGAGGAUUGAGCAUCA
B3: chr11:86278520:86278536:+|CDS_3pUTR|ENSG00000074266|msi1_unk|total|mutant (ssRNA)
RNA: GGGAGUUCUACAGUCCGACGAUCUGAUGCCAGUAUUUGGCGCUGGGAUCGACUUCGAUAAAAUACUUUUGCCUAAUCAAAAUCCGAGUGUGUUUGUUGUCUGUGUAAAACCGAAUUAAUGUAUCUUGCCCGUAAGGGCACGUACAACAGAGGAUUGAGCAUCA
B4: chr20:58459100:58460789:-|three_prime_utr|ENSG00000198768|control|control|control (ssRNA)
RNA: GGGAGUUCUACAGUCCGACGAUCACAUCAGGAUGGCGGCUCUGGACACCCAUUCAACCCUUCAGACUCCCUCCUGGCAGCUGUAGGGAAGGAACCAUUCUCCUCUGCUCUGUCAUGGAUGGAUGCACAGCCCCACUGCUUCCACAACAGAGGAUUGAGCAUCA
B5: chr4:137519872:137519973:-|3pUTR|ENSG00000189184|unk|total|mutant (ssRNA)
RNA: GGGAGUUCUACAGUCCGACGAUCAACUAUUCAUUUUCCGCUUUUGUCUCCAGUGCAUGAUCUCAUAUUUUUGCUUUUAUUUUCCGUAUAAGAACAUUUAUAAAAUCAUAUUUUUGUUACUGCAAUUGUUUUAUUUGUUGUGUGCAACAGAGGAUUGAGCAUCA
B6: chr5:96781692:96781854:-|CDS|ENSG00000164307|control|control|control (ssRNA)
RNA: GGGAGUUCUACAGUCCGACGAUCGUGACCUUGGCAGUGUUUGCUGUGGGGGCCCAGAGCACAGAAGGCUGGGAUUUUCUUUAUAGUAAAUAUCAGUUUUCUUUGUCCAGUACUGAGAAAAGCCAAAUUGAAUUUGCCCUCUGCCAACAGAGGAUUGAGCAUCA
B7: chrX:119243754:119243940:+|3pUTR|ENSG00000101856|msi1|FALSE|unique (ssRNA)
RNA: GGGAGUUCUACAGUCCGACGAUCAGCUGCAAAAAAGCAUAUUUUCUGUGUUUCUGGACUGCACUGUUGUCCUUGCCCUCACAUAGACACUCAGACACCCUCACAAACACAGUAGUCUAUAGUUAGGAUUAAAAUAGGAUCUGACAACAGAGGAUUGAGCAUCA
B8: ENSG00000124766:be:win_2551|3pUTR|ENSG00000124766|bound_else_gene|NA|bound_elsewhere_windowed (ssRNA)
RNA: GGGAGUUCUACAGUCCGACGAUCUCUUUUAAAGAUUUCUGUAUAAGACUGUUGAGCAGUUUUUAAAAUAGUGUAGGAUAAUAUAAAAAGCAGAUAGAUGGCGCUAUGUUUGAUUCCUACAACGAAAUUAUCACCAGCUUUUUUCAACAGAGGAUUGAGCAUCA
B9: chr2:32414998:32415099:+|CDS|ENSG00000115760|unk|FALSE|unique (ssRNA)
RNA: GGGAGUUCUACAGUCCGACGAUCCCAUGUUUAUUAGCUGGAGGUUUAUUAACAUAUAAAUCUCCUGCUACCUCACCCAUUAGUAGUAAUUCUCACAGGUCACUGGAUGGUUUAAGCAGAACUCAGGGUGAAAGUAUAUCAGAACAACAGAGGAUUGAGCAUCA
B10: ENSG00000198589:be:win_8551|CDS_3pUTR|ENSG00000198589|bound_else_gene|NA|bound_elsewhere_windowed (ssRNA)
RNA: GGGAGUUCUACAGUCCGACGAUCCGCUACUGAUGGUGACAGCUGUACAUCAACUCUGCCCCUAGGAUGAGCAGAAGUACCUGGAGCAUCAUUCUCUUCUACCACAUCUGAAUGUAACUUAAAUUUGCUCAAAGAAGCAAAAUACAACAGAGGAUUGAGCAUCA
B11: chr5:179730620:179730726:+|3pUTR|ENSG00000127022|msi1_unk|FALSE|overlapping (ssRNA)
RNA: GGGAGUUCUACAGUCCGACGAUCGAGCUUUAAAUCAUUAGAGCUUAAAUUGUCAGAUCGUUCAUUGCCUUUCCAGGGUUAUUUAGUAAAGUUUGUUGAAAACAAAAACGCCUUUUCUUGGUUCUUUUUUCAGUUAUUUUGAAGCAACAGAGGAUUGAGCAUCA
B12: ENSG00000197006:stop:overlap|stop_codon|ENSG00000197006|stop_codon|NA|stop_codon (ssRNA)
RNA: GGGAGUUCUACAGUCCGACGAUCUUGCCCUUGUCCUCCCCUUUCAUCCCUAUGUGGAAAACGGUAAGUGUGGUCAGUCAGGCUAGCUCUUACUGAGGAUAGCUGUUUAUUGGUAUUUGUGAUUUUGUGCUGUGUACAAUUAAACAACAGAGGAUUGAGCAUCA
B13: chr14:50159683:50159784:-|CDS|ENSG00000100485|unk|total|mutant (ssRNA)
RNA: GGGAGUUCUACAGUCCGACGAUCGAGGAAAAUACAAAUUUGUGAUAAAGAAGAUACUUGUGAGCACAAGCAUGCAUUUGAAUCCGUAUCCAAAGAUGAGAACAGCAUAAUAUUUGCUGCUAAGUCUGCUGAAGAAAAAAACAACAACAGAGGAUUGAGCAUCA
B14: ENSG00000136010:stop:overlap|stop_codon|ENSG00000136010|stop_codon|NA|stop_codon (ssRNA)
RNA: GGGAGUUCUACAGUCCGACGAUCACUUAGGUGAGGAAGCUCUAAAUGAAUAUCUCAAAACCAAGACGGUGACACUGGAAUAUUAGAGCAACACCAUCAUCAGGAAAGCCUUGACAGACAGCCCUUUACAACUCUGGACACACUCAACAGAGGAUUGAGCAUCA

molecular target: MSI1 full-length (mouse, UniProt Q61474 1-362); assay: nsRBNS (natural sequence RNA bind-n-seq); RBNS binding buffer (assumed for nsRBNS): 25 mM Tris pH 7.5, 150 mM KCl, 3 mM MgCl2, 0.01% Triton X-100, 500 ug/ml BSA, 20 U/ml SUPERase-In, 4 C; UNK is unkempt and MSI1 is Musashi-1; names of the RNAs are library labels; protein concentration not given here; high values mean tight binding
Sequence of UniProt Q61474 (Q61474 whole entry): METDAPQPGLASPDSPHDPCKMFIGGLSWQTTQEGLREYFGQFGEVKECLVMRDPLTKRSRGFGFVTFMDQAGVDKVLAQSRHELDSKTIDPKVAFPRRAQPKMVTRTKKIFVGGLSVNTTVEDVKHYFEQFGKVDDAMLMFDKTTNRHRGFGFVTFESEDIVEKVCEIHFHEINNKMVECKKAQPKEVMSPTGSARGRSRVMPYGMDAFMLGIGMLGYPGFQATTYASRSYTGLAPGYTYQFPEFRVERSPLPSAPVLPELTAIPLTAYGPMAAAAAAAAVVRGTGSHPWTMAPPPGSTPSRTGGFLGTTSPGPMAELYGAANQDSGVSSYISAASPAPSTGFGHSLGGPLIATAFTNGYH

**Q.** How did the binding signal turn out when B1 was run?
**A.** 1.33 enrichment R

**Q.** B2 was tested. Which binding signal did it give?
**A.** 0.357 enrichment R

**Q.** With B3 as the binder, how does the binding signal read?
**A.** 0.216 enrichment R

**Q.** How did the binding signal turn out when B4 was run?
**A.** 0.42 enrichment R

**Q.** For B5, which binding signal is on record?
**A.** 0.825 enrichment R

**Q.** For B6, which binding signal is on record?
**A.** 0.53 enrichment R

**Q.** Which binding signal does the source give for B7 here?
**A.** 7.92 enrichment R

**Q.** With B8 as the binder, how does the binding signal read?
**A.** 2.23 enrichment R

**Q.** Which binding signal does the source give for B9 here?
**A.** 0.596 enrichment R

**Q.** How did the binding signal turn out when B10 was run?
**A.** 0.51 enrichment R

**Q.** With B11 as the binder, how does the binding signal read?
**A.** 1.41 enrichment R

**Q.** How did the binding signal turn out when B12 was run?
**A.** 0.761 enrichment R

**Q.** For B13, which binding signal is on record?
**A.** 0.295 enrichment R

**Q.** How did the binding signal turn out when B14 was run?
**A.** 0.312 enrichment R
